Source: publication PMC4336329 (PLoS ONE, 2015)
The whole screen tested about 310,000 compounds, of which about 14,000 (4.5%) showed an effect of 50% or more. Effects have a minus sign here. This is one part of the list.

Molecular target: human ether-à-go-go-related gene (hERG) potassium channel (human, UniProt Q12809)
Assay: primary screen, population patch clamp on CHO cells stably expressing hERG
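Note: peak tail current of the secondary pulse compared with the same well before compound.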

Chain of human ether-à-go-go-related gene (hERG) potassium channel (Q12809 whole entry, looked up): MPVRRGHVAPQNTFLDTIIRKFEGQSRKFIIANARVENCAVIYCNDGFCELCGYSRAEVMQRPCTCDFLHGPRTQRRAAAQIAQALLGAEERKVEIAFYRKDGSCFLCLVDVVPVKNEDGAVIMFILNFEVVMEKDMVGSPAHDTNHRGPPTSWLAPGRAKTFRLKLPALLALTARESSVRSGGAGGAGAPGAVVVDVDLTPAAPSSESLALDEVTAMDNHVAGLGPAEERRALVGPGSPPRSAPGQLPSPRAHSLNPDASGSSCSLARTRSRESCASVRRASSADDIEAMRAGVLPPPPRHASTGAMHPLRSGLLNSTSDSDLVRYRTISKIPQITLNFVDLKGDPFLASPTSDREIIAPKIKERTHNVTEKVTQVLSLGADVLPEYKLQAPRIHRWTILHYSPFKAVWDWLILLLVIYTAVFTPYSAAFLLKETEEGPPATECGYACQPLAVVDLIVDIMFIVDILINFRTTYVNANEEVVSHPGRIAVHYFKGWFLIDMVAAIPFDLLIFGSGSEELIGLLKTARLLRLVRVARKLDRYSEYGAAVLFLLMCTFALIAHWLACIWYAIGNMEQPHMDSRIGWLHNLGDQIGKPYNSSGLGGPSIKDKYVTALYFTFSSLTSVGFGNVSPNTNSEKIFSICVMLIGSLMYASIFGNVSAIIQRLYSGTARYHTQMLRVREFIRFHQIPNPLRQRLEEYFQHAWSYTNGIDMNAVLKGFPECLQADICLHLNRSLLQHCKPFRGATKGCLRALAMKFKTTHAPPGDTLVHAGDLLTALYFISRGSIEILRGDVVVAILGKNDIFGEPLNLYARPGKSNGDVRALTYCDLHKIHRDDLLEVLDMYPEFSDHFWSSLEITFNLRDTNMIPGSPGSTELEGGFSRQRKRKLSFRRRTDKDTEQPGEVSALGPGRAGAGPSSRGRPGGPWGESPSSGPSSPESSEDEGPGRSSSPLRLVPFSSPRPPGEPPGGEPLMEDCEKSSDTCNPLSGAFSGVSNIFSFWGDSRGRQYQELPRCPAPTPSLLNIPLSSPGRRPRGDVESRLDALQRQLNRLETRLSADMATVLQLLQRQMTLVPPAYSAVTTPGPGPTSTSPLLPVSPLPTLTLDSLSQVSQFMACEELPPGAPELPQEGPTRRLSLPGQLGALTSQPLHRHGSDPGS

SMILES	hERG current change (%, negative = inhibition) at 10uM
Cc1nn(Cc2ccccc2)c(C)c1C(=O)OCC(=O)NCc1ccco1	-34.3%
Br.N#Cc1ccc(CSC2=NCCN2)cc1	-4.5%
Cc1ccc(S(=O)(=O)NNC(=O)C2CCCCC2)cc1	9.57%
COC(=O)COc1ccc(-n2cnnn2)cc1	25.8%
Cc1ccnc(NC(=O)CS(=O)(=O)c2ccccc2)c1	1.38%
Cn1c(=O)c(=O)n(C)c2cc([N+](=O)[O-])c(N3CCOCC3)cc21	-5.96%
CC1CCN(c2nc(-c3ccccc3)cc(C(F)(F)F)n2)CC1	-0.231%
Cc1cccc(S(=O)(=O)C(C#N)c2nc3ccccc3nc2N2CCCC2)c1 (stereo not drawn)	-18.4%
Cc1cc(C)c2c(n1)SCC(=O)N2CC(=O)Nc1cc(F)ccc1F	-7.16%
CC(=O)Nc1ccc(S(=O)(=O)NCC2CCC(C(=O)NC(C)c3ccccc3)CC2)cc1 (stereo not drawn)	17.8%
COC1=CC(=O)CC(C)C12Oc1cc(OC)cc(OC)c1C2=O (stereo not drawn)	3.5%
CCOC(=O)N1N=C(c2ccc(OC)cc2)CC1(O)C(F)(F)F (stereo not drawn)	12.7%
O=C(O)CCCC(=O)N1CCc2cc(S(=O)(=O)NCc3ccc(F)cc3)ccc21	32.8%
O=C(CSc1nc2ccccc2o1)N1c2ccccc2Sc2ccc(Cl)cc21	-4.23%
Cc1ccc(O)c(C2=NOC(O)(C(F)(F)F)C2)c1 (stereo not drawn)	-6.25%
C/C(=N\NC(=O)C1CC1)c1ccc(Cl)cc1	8.35%
Cc1cc(N2CCN(C(=O)c3ccco3)CC2)n2nc(-c3cccc(Cl)c3)cc2n1	-1.09%
O=C(c1nc2ccccn2c1CN1CCCC(OCc2ccccc2)C1)N1CCCC1 (stereo not drawn)	-44.8%
CC(=O)Nc1nc(C2COc3ccccc3O2)cs1 (stereo not drawn)	9.03%

SMILES	hERG current change (%, negative = inhibition) at 10uM
Cc1ccc(S(=O)(=O)/C(C#N)=C/c2c(Oc3ccc(Cl)cc3)nc3c(C)cccn3c2=O)cc1	19.3%
Cc1ccc(C(=O)NCc2ccc(N3CCN(C(=O)OC(C)(C)C)CC3)cc2)cc1	10.1%
CCC(=O)N(C1=C(NC)C(=O)c2ccccc2C1=O)C(C)C	-0.0223%
Cc1ccc(C)c(NC(=O)CSc2nc(C)cc(C)c2C#N)c1	9.7%
N#CC(Cc1ccccc1OC(F)F)c1nc2ccccc2[nH]1 (stereo not drawn)	-16.2%
CSc1nc2[nH]ncc2c(=O)[nH]1	7.53%
O=C(CSc1nnc(-c2ccncc2)o1)N1CCc2ccccc2C1	-37.4%
COc1ccc(CCCc2n[nH]c(=S)o2)cc1C	15.8%
Clc1cncc(Cl)c1NNc1c2ccccc2nc2ccccc12	-4.88%
COc1ccc2[nH]cc(/C=C(/C#N)S(=O)(=O)c3ccccc3)c2c1	13.5%
COc1cccc(/C=N\NC(=O)c2cc(OCC(F)(F)F)ccc2OCC(F)(F)F)c1	6.6%
O=P(CCNCc1ccco1)(c1ccccc1)c1ccccc1	-23.3%
CCOC(=O)CCc1c(C)nc2cc(-c3ccc(F)cc3)[nH]n2c1=O	-2.68%
O=C(CN1C(=O)NC2(CCCC2)C1=O)NNC(=O)c1ccc(F)cc1	28.9%
Cc1ccc(C(=O)Nc2ccccc2C(N)=O)o1	-4.38%
CC1CCN(CCCn2c(SCC(=O)NC3CCCC3)nc3ccccc3c2=O)CC1	-77%
Cc1nn(C)c(Cl)c1CN1CCN(CC(C)C)C(CCO)C1 (stereo not drawn)	0.825%
CC(Cc1ccccc1)[n+]1cc(/N=C(\[O-])N(C)C)on1.Cl (stereo not drawn)	-4.3%
Clc1ccc(Cl)c2sc(N3CCOCC3)nc12	2.8%

SMILES	hERG current change (%, negative = inhibition) at 10uM
CCCCSc1c(C)c2cc3c(cc2[nH]c1=O)OCO3	8.22%
CCC(C)Nc1nc(SC(C(C)=O)C(C)=O)nc(N(C)C)n1 (stereo not drawn)	-18.1%
COc1ccc(Cn2c(O)c(/C=N/NC(=O)c3ccccc3O)c(=O)[nH]c2=O)cc1	5.9%
CC(NCC(=O)NC(=O)NC1CCCC1)c1ccc(Cl)cc1Cl (stereo not drawn)	-25.1%
CC(=O)Nc1ccc2nc(NC(=O)c3cccs3)sc2c1	24.6%
Cc1ccnc(Sc2ccc([N+](=O)[O-])cc2[N+](=O)[O-])n1	3.78%
CCc1cccc(C)c1NC(=O)CN(C)S(=O)(=O)c1ccc(-c2ccc(=O)[nH]n2)s1	-55.3%
Cc1csc(NC(=O)CSc2nc3ccccc3s2)n1	-17.6%
O=c1c2c([N+](=O)[O-])cc([N+](=O)[O-])cc2sn1Cc1ccccc1	23.3%
COc1ccc(C(=O)C2CCCN(Cc3c(F)ccc(F)c3F)C2)c(OC)c1 (stereo not drawn)	-30.9%
c1ccc(CN2CCC(Nc3nc(-c4cccs4)nc4ccccc34)CC2)cc1	-59.9%
COc1cccc(CNC(=O)CCNC(=O)Cn2ccc3ccccc3c2=O)c1	10%
CCOCCCNCC(=O)NCC1CCCCC1.O=C(O)C(=O)O	31.6%
Cc1nc(NC(=O)/C=C/c2ccccc2)sc1C(=O)Nc1ccccc1Cl	13.3%
COc1ccc(C(CC(=O)N2CCC3(CC2)OCCO3)NS(=O)(=O)c2ccc(C)cc2)cc1 (stereo not drawn)	-8.66%
CCCCNC(=O)NS(=O)(=O)c1ccc(NS(=O)(=O)c2ccccc2)cc1	7.98%
C/C(CS(=O)(=O)c1ccc(Cl)cc1)=N/NC(N)=S	-14.2%
Cc1cc2c(=O)n(CC(=O)N3CCN(c4ccc(F)cc4)CC3)cnc2s1	-12.4%
COc1ccc(NCC(=O)Nc2cc(S(=O)(=O)N3CCOCC3)ccc2N2CCOCC2)c(OC)c1	-7.17%
